We go through 3 compounds from PubChem BioAssay (NCATS).

Test [1] can be described thus: qHTS Assay for Lipid Storage Modulators (AID 1519). The conditions noted are these: Drosophila S3 cells, BODIPY lipid droplet/cell ratio, laser cytometry, cells loaded with oleic acid. In outline:
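Cells seeded at 5,000 per well were treated with compounds over a concentration series and loaded with oleic acid (400 uM, as added). Lipid droplet fluorescence (488 nm excitation, 500-530 nm channel) was read by laser-scanning cytometry and normalized to 20 uM Triacsin C.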
(In qHTS, concentration-response curves come from the screen itself.)

Test [2] is described as follows: A High-Content qHTS Against Drug Library for the Identification of Small Molecules that Inhibit DYT1 Early Onset Primary Dystonia-Associated Cell Pathology (AID 1645839). The conditions noted are these: HEK293 Flp-In EGFP-delE TorsinA, punctate imaging, 48 h; measured here: cell count cytotoxicity. A digest of the protocol:
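Induced EGFP-delE TorsinA cells are imaged after 48 h of compound treatment. Punctate fusion-protein distribution gives the %pathology value, while nuclei counts flag toxicity. Wild-type EGFP-hTOR1A cells define the normal pattern.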

The mark [3] stands for this setting: measured here: cell count channel max response.
[4] abbreviates: measured here: cell number channel AC50.
Where [5] appears, read: measured here: lipid (BODIPY) channel AC50.
The mark [6] stands for this setting: measured here: lipid channel max response.

Molecules are shown by their SMILES. Some of the results follow. These are further read-outs of the screen, such as a control signal, another cell line or another target. No call is given for them. Most of these compounds were active or inconclusive in the main read-out, so they are no random draw. The note in brackets gives the kind of curve behind each potency; many fits are weak.
Tags describe the fitted curve by direction and shape.

For the compound `C[C@@H]1CN(CCCn2c3ccccc3c3ccccc32)C[C@H](C)N1`, the max response in test [1] (setting [3]) stood at 47.4%; in test [1] (setting [6]), 61%. Moreover, the AC50 – broadly, the concentration giving half of the maximal activity seen – in test [1] (setting [4]) is 28.2 µM [rising, partial curve, poor fit]; in test [1] (setting [5]), 31.6 µM [rising, partial curve, poor fit]; in test [2], 3.16 µM [falling, full curve].
In the case of `COc1ccccc1CNc1cc(-c2ccoc2)ncn1`, the max response in test [1] (setting [3]) turned out to be 38.1%; in test [1] (setting [6]) it was 44.8%. Moreover, the AC50 in test [1] (setting [4]) is 8.91 µM [rising, partial curve]; in test [1] (setting [5]), 7.94 µM [rising, partial curve, poor fit].
Turning to `C#C[C@]1(O)CC[C@H]2[C@H]3CCC4=Cc5oncc5C[C@]4(C)[C@@H]3CC[C@]21C`, the max response in test [1] (setting [3]) amounted to 59.8%; in test [1] (setting [6]) it was 71.8%. Moreover, the AC50 was 2 µM [rising, full curve] in test [1] (setting [4]) and 5.01 µM [rising, full curve] in test [1] (setting [5]).
